Results on one molecule are retold here after publication doi:10.1101/419051 (bioRxiv, 2018).

In the test the target is ubiquitin (UniProt P0CG48 in part). Briefly: cryo-EM structure.

B1: Rpt5 (enzyme)
chain: not shown
Regarding B1, the binding result was “binds”.
